# Laboratory results taken from PMC4336329 (PLoS ONE, 2015).
# About 2,200 (0.71%) of roughly 310,000 compounds showed an effect of 50% or more. The effect is printed as a negative number. The list shows a part of the results.
# Biological target: human ether-à-go-go-related gene (hERG) potassium channel (human, UniProt Q12809)
# Assay: primary screen, population patch clamp on CHO cells stably expressing hERG
# human ether-à-go-go-related gene (hERG) potassium channel, sequence (Q12809 whole entry, looked up): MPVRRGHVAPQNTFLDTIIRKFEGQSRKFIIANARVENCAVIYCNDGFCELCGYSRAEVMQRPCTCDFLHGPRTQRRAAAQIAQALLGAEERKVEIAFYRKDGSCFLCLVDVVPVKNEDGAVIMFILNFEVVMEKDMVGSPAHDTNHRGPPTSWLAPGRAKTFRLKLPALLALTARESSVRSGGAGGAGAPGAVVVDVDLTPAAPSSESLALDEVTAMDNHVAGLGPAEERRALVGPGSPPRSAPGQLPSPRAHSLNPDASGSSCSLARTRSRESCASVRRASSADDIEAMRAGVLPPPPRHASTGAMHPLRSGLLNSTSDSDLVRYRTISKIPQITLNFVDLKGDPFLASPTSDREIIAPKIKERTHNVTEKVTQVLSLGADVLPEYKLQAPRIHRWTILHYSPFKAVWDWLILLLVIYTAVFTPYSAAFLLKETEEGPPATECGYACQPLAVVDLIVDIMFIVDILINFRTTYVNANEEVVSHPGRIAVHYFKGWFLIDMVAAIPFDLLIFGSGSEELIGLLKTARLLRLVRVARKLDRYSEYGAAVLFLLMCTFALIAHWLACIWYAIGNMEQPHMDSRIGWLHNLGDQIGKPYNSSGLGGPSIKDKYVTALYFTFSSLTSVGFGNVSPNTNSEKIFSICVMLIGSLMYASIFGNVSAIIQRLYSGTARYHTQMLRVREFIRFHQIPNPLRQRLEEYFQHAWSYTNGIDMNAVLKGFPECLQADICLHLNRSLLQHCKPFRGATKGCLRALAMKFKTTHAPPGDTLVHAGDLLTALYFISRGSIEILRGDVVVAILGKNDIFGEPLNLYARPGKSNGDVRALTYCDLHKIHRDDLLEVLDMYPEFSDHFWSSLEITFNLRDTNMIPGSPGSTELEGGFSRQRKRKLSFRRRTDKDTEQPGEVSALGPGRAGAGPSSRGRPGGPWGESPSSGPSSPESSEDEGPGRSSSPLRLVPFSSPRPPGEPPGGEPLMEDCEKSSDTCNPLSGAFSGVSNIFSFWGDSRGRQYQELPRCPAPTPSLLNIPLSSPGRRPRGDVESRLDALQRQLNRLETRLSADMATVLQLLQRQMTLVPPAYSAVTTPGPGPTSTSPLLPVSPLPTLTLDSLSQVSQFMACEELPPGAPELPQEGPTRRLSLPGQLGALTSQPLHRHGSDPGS
row,Compound,"hERG current change (%, negative = inhibition) at 1uM [%]"
1,COC(=O)c1c(C)oc2c1cc(NS(=O)(=O)c1cccs1)c1ccccc12,3.8
2,COc1ccc(C(=O)O/N=C(\N)Cc2cccs2)cc1OC,3.38
3,Cc1c(N)cc(C(=O)N2CCOCC2)cc1[N+](=O)[O-],17.3
4,O=C(NCc1ccccc1)C(=O)NCC1COc2ccccc2O1 (stereo not shown),3.38
5,CCCCn1c(N)c(N(CC(C)C)C(=O)CN2C(=O)C3CCCCC3C2=O)c(=O)[nH]c1=O (stereo not shown),8.39
6,CCc1ccc(NC(=O)CSc2nc3nc(C)cc(C)n3n2)cc1,-1.15
7,CCOC(=O)c1c(OCCO)nn(-c2ccccc2)c1N,13
8,COc1ccc(CCc2[nH+]c(C)ccc2O)cc1.[Cl-],16.4
9,Cn1c(=O)oc2cc(S(=O)(=O)Nc3cccc(F)c3)ccc21,11.6
10,Cc1cccc(COCCN2CCN(S(=O)(=O)c3ccccc3)CCC2=O)c1,3.43
11,COC(=O)[C@@]1(Cc2ccc(F)cc2)[C@H]2c3cc(C(=O)N(C)C)[nH]c3C[C@H]2CN1C(=O)c1ccccc1,17.4
12,CCN(CC)CCCN=C(C)c1c(O)n(-c2ccc(C)cc2)c(=O)[nH]c1=O,19.1
13,COC(=O)c1cccc([N+](=O)[O-])c1CN1CCCC(C(N)=O)C1 (stereo not shown),11
14,O=C(CSc1nnc(-c2ccc(Cl)cc2)n1-c1ccc(Cl)cc1)N/N=C/c1ccccc1C(=O)O,13.4
15,Cc1ccn2c(=O)nc(SCC(=O)OCc3ccccc3)nc2c1,15.2
16,N#CCOc1nc(N2CCOCC2)nc(N2CCOCC2)n1,9.71
17,CCN1C(=O)[C@H]2[C@@H](c3ccc(-c4ccccc4)c(OC)c3)N[C@@](Cc3ccccc3)(C(=O)OC)[C@H]2C1=O.O=C(O)C(F)(F)F,13.6
18,CCOc1ccc2ccccc2c1/C=N/NC(=O)c1ccncc1,13.4
19,Cc1cccc2c(N=O)c(O)[nH]c12,16.6
20,Cc1cc(N=Nc2ccccc2C)ccc1N,10.4
21,CCOC(=O)c1[nH]c2ccc(OC)cc2c1NC(=O)CN1CCN(c2ccccn2)CC1,1.35
22,O=C(NCCS(=O)(=O)N1CCC2(CC1)OCCO2)c1ccccc1,3.36

row,Compound,"hERG current change (%, negative = inhibition) at 1uM [%]"
1,Cc1cc(N2CCC(C)CC2)nc(-n2nc(C)cc2C)n1,-9.09
2,O=C(N/N=C/c1cc(Br)cs1)C(O)c1ccccc1 (stereo not shown),12.7
3,COc1ccc2cc3cc(C(=O)NCCc4ccc(OC)c(OC)c4)oc3nc2c1,10.8
4,O=C(c1cccc(Cl)c1)N1CCC(c2nc3ccccc3[nH]2)CC1,-0.145
5,CC(C)(C)C(=O)Nc1nc2ccc(S(C)(=O)=O)cc2s1,4.4
6,NNC(=O)COc1ccc(F)cc1,15.7
7,CN1C(=O)c2ccc(C(=O)Nc3ccccc3O)cc2C1=O,8.08
8,COc1ccc(N2Cc3cccc(C(=O)N4CCN(C(=O)c5ccco5)CC4)c3C2=O)cc1,-10.4
9,COC(=O)c1ccccc1N=Nc1c(C)noc1C,4.87
10,C1=C(CCNc2ncnc3nc[nH]c23)CCCC1,1.12
11,O=C1CC(c2cc(Br)ccc2F)c2cc3c(cc2N1)CCC3 (stereo not shown),-8.79
12,NC(=O)c1ccc(N=Cc2ccc([N+](=O)[O-])s2)cc1,14.1
13,CC1CC(N(C(=O)c2ccccc2Cl)c2ccccc2)c2ccccc2N1 (stereo not shown),15
14,CN(CC(=O)NC1CCCCC1)S(=O)(=O)c1ccc2c(c1)c(=O)n(C)c(=O)n2C,9.65
15,Cc1cc(N/N=C/c2ccccc2F)c2ccccc2n1,19.7
16,C/C(=C\C(=O)c1ccncc1)Nc1ccccc1O,-3.63
17,COc1cc(C2N(Cc3ccccc3)CCN2Cc2ccccc2)ccc1OC(C)=O,10.4
18,COc1ccc(CN2CCNC(=O)C2CC(=O)N(C)CC2CCOCC2)cc1OC (stereo not shown),14.7
19,Cc1ccc(-c2c(C)sc3ncn(CC(=O)N4CCOCC4)c(=O)c23)cc1C,6.2
20,O=C1/C(=C/c2cccs2)SC(=S)N1C1CCS(=O)(=O)C1 (stereo not shown),4.85
21,COc1ccc(CN2C=C3C(=O)C(C)(OC(=O)CCc4ccccc4)C(=O)C=C3C=C2c2ccc(C#N)cc2)cc1 (stereo not shown),9.8
22,CC(CC(=O)O)CC(=O)NNC(=O)c1cccc(Br)c1 (stereo not shown),8.72

row,Compound,"hERG current change (%, negative = inhibition) at 1uM [%]"
1,CCCCC1CCC(C(=O)NCc2ccc3c(c2)OCO3)CC1 (stereo not shown),5.65
2,CCN1CCN(C(=S)NC(C)c2ccccc2)CC1.O=C(O)C(=O)O (stereo not shown),4.8
3,COc1ccc2c(c1)c(CC(=O)Nc1nnc(C3CC3)s1)c(C)n2C(=O)c1ccc(Cl)cc1,17.8
4,CSc1ccc(S(=O)(=O)NCC(=O)OCC(=O)NCc2ccco2)cc1[N+](=O)[O-],-8.64
5,COc1ccc(C(=O)CSc2nc(C)cc(=O)[nH]2)cc1,17
6,CC[C@@H](C)[C@H](NC(=O)Cc1c(C)c2c(cc(C)c3c(C)c(C)oc32)oc1=O)C(=O)O,5.12
7,O=C(CN1CCOCC1)Nc1ccc(Cl)c(Cl)c1.O=C(O)C(=O)O,5.44
8,Cc1cnc(NC(=O)c2ccc(OCC3CCCO3)cc2)s1 (stereo not shown),14.7
9,O=C(O)C1CCCN(S(=O)(=O)c2ccc(F)cc2)C1 (stereo not shown),0.929
10,Cc1sc2ncnc(SCC(=O)N(C)C3CCS(=O)(=O)C3)c2c1C (stereo not shown),1.14
11,CCN(CC)C(=O)C(=O)c1ccn(-c2c(C)csc2C(=O)OC)c1,7.53
12,N#Cc1ccc(Cn2c(-c3ccc(F)cc3)noc2=O)cc1,8.42
13,Cc1cc([N+](=O)[O-])nn1CCCC(=O)O,11.2
14,O=C(CCc1c[nH]c2ccccc12)NC1CC1,13.5
15,CC1CCN(S(=O)(=O)c2ccc(NC(=O)C3CC3)cc2)CC1,10.7
16,CSc1cccc(NC(=O)CCCNC(=O)c2ccc(Cl)cc2)c1,10.6
17,Cn1cccc/c1=N\c1cccc[n+]1C.[I-],17.6
18,COc1ccc(-n2c(SCC(=O)Nc3ccc(C(N)=O)cc3)nc3ccccc3c2=O)cc1OC,13.1
19,O=C(CN1C2CCCC1CC(NC(=O)c1ccccc1)C2)Nc1nccs1 (stereo not shown),-11.8
20,O=Cc1cn(Cc2ccc(F)cc2)c2ccccc12,14.4
21,CCN(CC)S(=O)(=O)c1ccc2oc(Nc3ccc4c(c3)OCCO4)nc2c1,2.77
22,Cc1ccc(-n2cccn2)c(CN2CCCC(CNC(=O)c3ccc(F)cc3)C2)c1 (stereo not shown),-78.9

row,Compound,"hERG current change (%, negative = inhibition) at 1uM [%]"
1,O=S(=O)(Nc1nc2ccccc2nc1Cl)c1cccc(C(F)(F)F)c1,10.1
2,Cc1csc(NC(=O)c2cc3c(s2)CCCC3)n1,-5.16
3,CCOc1ccc(CCNC(=O)c2cc3c(C)nccc3[nH]c2=O)cc1OCC,3.36
4,CCN(C(=S)Nc1cccnc1)c1cccc2ccccc12,14.5
5,COc1ccc(-c2nnc(SC(C)C#N)o2)cc1 (stereo not shown),-7.28
6,COc1ccc(/C=N/Nc2ccc([N+](=O)[O-])cc2)cc1O,5.91
7,COc1ccc(O[C@@H]2O[C@H](COC(C)=O)[C@@H](OC(C)=O)[C@H](OC(C)=O)[C@H]2NC(C)=O)cc1,2.34
8,O=C(COC(=O)CCc1nc2ccccc2c(=O)[nH]1)Nc1ccc2c(c1)OCO2,8.77
9,COc1ccc(/C=N/NC(=O)c2cccc(COCC(F)(F)C(F)F)c2)cc1,0.208
10,O=C(c1ccc2c(c1)OCO2)C1CCCN(Cc2ccc3nsnc3c2)C1 (stereo not shown),-34.9
11,O=C(NCC1COc2ccccc2O1)c1ccc(Cl)c(S(=O)(=O)N2CCCC2)c1 (stereo not shown),1.75
12,CCCCN(C(=O)CN1CCOCC1)c1c(N)n(CC(C)C)c(=O)[nH]c1=O,9.94
13,Cc1cccc(C)c1NC(=O)C1CCCN1C(=O)Nc1cccc(F)c1 (stereo not shown),0.848
14,Cc1ccc2nc(C)c(C)nc2c1N,4.2
15,Cc1ccc(NC(=S)NCCc2c[nH]c3ccccc23)cc1,2.78
16,COc1cccc(/C(O)=C/c2nc3ccc(C(=O)NCCc4cccc(C)c4)cc3[nH]c2=O)c1,15.2
17,COc1ccc(NC(=O)C2CCCN2C(=O)OC(C)(C)C)cc1 (stereo not shown),12.3
18,COc1ccc(CCN2C(=O)CC(Cc3ccccc3)C2=O)cc1OC (stereo not shown),0.263
19,C=CCn1c(NS(=O)(=O)c2ccccc2)c(S(=O)(=O)c2ccc(C)cc2)c2nc3ccccc3nc21,2.37
20,O=C(c1ccco1)N1CCN(C(=O)c2ccc(COc3ccc(Cl)cc3Cl)o2)CC1,-22.3
21,C=C(C)C1CC=C(C)/C(=N\NC(=O)CCc2ccccc2)C1 (stereo not shown),13.6
22,COC(=O)/C=C/c1ccc2c(c1)S(=O)(=O)N(c1cccc(OC)c1)[C@H]2CC(=O)OC,14.1
